# Measured values published in paper PMC4336329 (PLoS ONE, 2015).
# The whole screen tested about 310,000 compounds, of which about 2,200 (0.71%) showed an effect of 50% or more. The effect is printed as a negative number. The list shows a part of the results.
# Target: human ether-à-go-go-related gene (hERG) potassium channel (human, UniProt Q12809)
# Test: primary screen, population patch clamp on CHO cells stably expressing hERG
# Chain of human ether-à-go-go-related gene (hERG) potassium channel (Q12809 whole entry, looked up): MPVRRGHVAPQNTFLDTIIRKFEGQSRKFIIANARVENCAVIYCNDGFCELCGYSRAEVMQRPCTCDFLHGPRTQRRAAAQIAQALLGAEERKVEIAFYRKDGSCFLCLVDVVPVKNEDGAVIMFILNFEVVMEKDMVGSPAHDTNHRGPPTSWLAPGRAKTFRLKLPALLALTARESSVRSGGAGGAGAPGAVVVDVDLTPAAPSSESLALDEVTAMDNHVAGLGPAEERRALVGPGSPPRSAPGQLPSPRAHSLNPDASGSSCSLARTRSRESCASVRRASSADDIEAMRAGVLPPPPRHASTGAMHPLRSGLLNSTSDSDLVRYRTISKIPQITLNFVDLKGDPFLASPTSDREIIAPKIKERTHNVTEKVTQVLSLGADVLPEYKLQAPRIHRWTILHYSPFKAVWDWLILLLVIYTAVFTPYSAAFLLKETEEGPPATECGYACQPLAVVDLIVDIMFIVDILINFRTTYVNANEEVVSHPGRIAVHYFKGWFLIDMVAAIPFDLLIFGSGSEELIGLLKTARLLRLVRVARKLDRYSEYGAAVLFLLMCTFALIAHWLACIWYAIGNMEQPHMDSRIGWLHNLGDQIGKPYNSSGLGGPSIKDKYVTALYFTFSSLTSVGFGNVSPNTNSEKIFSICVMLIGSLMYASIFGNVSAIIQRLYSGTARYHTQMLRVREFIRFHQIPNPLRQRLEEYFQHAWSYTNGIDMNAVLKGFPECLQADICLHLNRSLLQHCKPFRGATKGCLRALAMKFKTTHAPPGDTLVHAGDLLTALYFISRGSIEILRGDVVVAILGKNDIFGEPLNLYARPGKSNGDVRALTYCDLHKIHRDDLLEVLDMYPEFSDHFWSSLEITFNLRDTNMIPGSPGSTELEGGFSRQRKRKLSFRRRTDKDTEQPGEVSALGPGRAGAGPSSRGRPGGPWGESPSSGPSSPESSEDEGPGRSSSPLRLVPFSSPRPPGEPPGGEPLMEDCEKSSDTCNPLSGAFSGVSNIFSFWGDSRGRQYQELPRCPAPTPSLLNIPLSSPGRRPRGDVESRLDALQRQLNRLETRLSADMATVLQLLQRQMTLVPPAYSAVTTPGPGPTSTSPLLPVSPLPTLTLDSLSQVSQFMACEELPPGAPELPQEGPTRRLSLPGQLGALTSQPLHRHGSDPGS
row,SMILES,"hERG current change (%, negative = inhibition) at 1uM"
1,COc1ccc(C2CC(c3ccc([N+](=O)[O-])cc3)=NN2C(C)=O)cc1 (stereo not shown),-7.15%
2,CCN(Cc1ccccc1)C(c1ccc(Cl)cc1)c1nnnn1C(C)(C)C (stereo not shown),7.08%
3,CCCSc1nnc(CSc2nc3nc(C)cc(C)n3n2)o1,10.6%
4,COc1ccc(OC)c(S(=O)(=O)N2CCC(C(=O)NCc3ccccc3)CC2)c1,3.23%
5,O=C(NCc1ccc(OC(F)(F)F)cc1)C1CC(c2cccc(F)c2)=NO1 (stereo not shown),1.66%
6,CN(c1ccc(OCC(=O)OCC(=O)Nc2c(F)c(F)c(F)c(F)c2F)cc1)S(=O)(=O)c1ccc(F)cc1,21.9%
7,COc1c(C(=O)Nc2c(C)n(C)n(-c3ccccc3)c2=O)ccc2ccccc12,-1.91%
8,COc1ccc(C)cc1NC(=O)CSc1nnc(-c2ccco2)n1N,10.2%
9,O=C(O)C(=O)Nc1nc(-c2ccc3c(c2)OCCO3)cs1,16.3%
10,CCOc1ccc(CC(=O)N2CCN=C2SCc2ccc([N+](=O)[O-])cc2)cc1,-1.71%
11,CC(C)(C)c1ccc(C(=O)NCCCn2ccnc2)cc1.Cl,-0.0221%
12,CC(C)(C)SCCSC1=CC(=O)CC(c2ccccc2)C1 (stereo not shown),4.93%
13,Nc1no[n+]([O-])c1-c1ccccc1,19.3%
14,CN(C(=O)COC(=O)c1cc(S(=O)(=O)N2CCCCC2)ccc1N1CCOCC1)C1CCS(=O)(=O)C1 (stereo not shown),12.7%
15,CN(C)c1ccc(NC(=O)c2cccc(N3C(=O)CCC3=O)c2)cc1,4.99%
16,CC(C)CSc1nc2c(=O)[nH][nH]c(=O)c2n1Cc1ccccc1,5.37%
17,COC(=O)n1c(=O)oc2cc(S(=O)(=O)N3CCOCC3)ccc21,-13.1%
18,O=S(=O)(c1ccc(N2CCOCC2)c(Cl)c1)N1CCOCC1,15.9%
19,CC1=NN(c2ccccc2)C(=O)C1N=Nc1ccc(N)cc1 (stereo not shown),10.3%
20,O=C(Nc1ccccc1F)C1CCCN1S(=O)(=O)c1ccc(Cl)cc1 (stereo not shown),7.58%
21,O=C(c1c[nH]cc1-c1ccccc1)c1cccc2ccccc12,-2.22%
22,Cc1ccc(CN2C(=O)/C(=C\c3ccc(C(=O)NCc4cccnc4)cc3)Oc3ccccc32)cc1,2.38%

row,SMILES,"hERG current change (%, negative = inhibition) at 1uM"
1,O=C(c1ccc2c(=O)n3c(nc2c1)CCC3)N1CCN(S(=O)(=O)c2cccc(F)c2)CC1,6.52%
2,Cc1cccc(C)c1NC(=O)C1(N2CCN(C(=O)c3ccco3)CC2)CCCCC1,3.3%
3,CCCC(C(=O)NC1=NCCS1)c1ccccc1 (stereo not shown),14.1%
4,S=C(NCc1cccnc1)Nc1ccc(Cl)c(Cl)c1,-3.22%
5,COc1ccc(NS(=O)(=O)c2cc3c4c(c2)CCN4C(=O)CC3)cc1OC,11.3%
6,CCSc1cc(C)nc2ncnn12,13.4%
7,CCN(Cc1ccccc1)C(=O)COC(=O)c1cc(S(=O)(=O)Nc2c(C)n(C)n(-c3ccccc3)c2=O)ccc1C,-44%
8,Cc1nnc(NC(=O)CCS(=O)(=O)c2ccccc2)s1,17.6%
9,CCOC(=O)C(C)Sc1nc(-c2ccco2)cc(C(F)(F)F)c1C#N (stereo not shown),0.973%
10,Cc1cc(Cl)ccc1NC(=O)c1ccc2c(c1)CCN2S(C)(=O)=O,9.68%
11,COc1ccc(CNC(=O)Cn2cnc3c(=O)n(C)c(=O)n(C)c32)cc1,10.2%
12,Cc1ccc(C(=O)Nc2ccccc2C(=O)O)cc1S(=O)(=O)NCc1ccccc1,12.4%
13,O=S1(=O)CCOC[C@H](Cc2ccccc2)N1Cc1cccc(C(F)(F)F)c1,18.2%
14,CCOC(=O)CC(c1ccc([N+](=O)[O-])cc1)n1c(C)ccc1C (stereo not shown),2.21%
15,O=C1Cc2ccccc2C(=O)N1OCc1ccc(Cl)cc1Cl,15.5%
16,CC1CCCN(c2ncnc3c2cnn3-c2ccc(Cl)cc2)C1 (stereo not shown),11.8%
17,COc1ccc2c(CC(=O)OCC(=O)Nc3ccccc3[N+](=O)[O-])coc2c1,13.9%
18,COc1cc(S(=O)(=O)n2cnc(C)c2)ccc1Cl,6.58%
19,Cc1ccc(C(=O)Nc2nc3ccc(Cl)cc3s2)o1,9.87%
20,NC(=O)c1ccc(Oc2ncc(C(F)(F)F)cc2Cl)cc1,7.16%
21,CCOC(=O)c1c(C)[nH]c(C(=O)OCC(=O)NC2(C#N)CCCCC2)c1C,2.05%
22,CCOC(=O)c1ccc(NC(=O)Cn2cnc3cc(C)c(C)cc32)cc1,11.1%

row,SMILES,"hERG current change (%, negative = inhibition) at 1uM"
1,CCCS(=O)(=O)c1nc(S(=O)(=O)c2ccc(C)cc2)c(N2CCC(C(N)=O)CC2)s1,14.8%
2,COc1cccc(CN(CC(=O)NC2CCCC2)C(=O)CCC(=O)Nc2cc(C)on2)c1,-2.51%
3,O=C(CC1SC(=Nc2ccc3c(c2)OCCO3)NC1=O)Nc1ccc(F)cc1F (stereo not shown),13%
4,C/C(=N\NC(=O)Cn1cnc2ccccc21)c1cccs1,17.2%
5,CC1=C/C(=C(/c2cc(C)c(O)c(Br)c2)c2ccccc2S(=O)(=O)[O-])C=C(Br)C1=O.[NH4+],11.3%
6,CC(C)(C)C(=O)NC(=S)NCc1ccccc1,11.9%
7,CC(C)=CC1C(C(=O)NCCOc2ccccc2)C1(C)C (stereo not shown),13.1%
8,O=C1NN(c2ccc(F)cc2)C(=O)/C1=C/c1cccs1,6.11%
9,CCC(NC(=O)CCc1c(C)c2cc3c4c(oc3cc2oc1=O)CCCC4)C(=O)O (stereo not shown),13.6%
10,O=C(CNS(=O)(=O)c1ccc2c(c1)OCCCO2)N1CCN(c2ccc(F)cc2)CC1,-4.8%
11,COc1ccc2c(C)cc(SCc3c(C)noc3C)nc2c1,-1.12%
12,CCN(CC)C(=O)c1cc2c(=O)oc3ccccc3c2s1,-2%
13,CC(NC(=O)c1c(Cl)cnn1C)C1CCCO1 (stereo not shown),9.9%
14,COc1ccc(C2CC(=O)Nc3n[nH]c(-c4ccccc4)c32)cc1OC (stereo not shown),4.97%
15,CC1(c2ccc(Cl)cc2)NC(=O)N(CC(=O)N2CCCC2)C1=O (stereo not shown),6.87%
16,COc1cccc(C(=O)Oc2ccc3ccc(O)cc3c2)c1,13.3%
17,COCCn1c(SCC(=O)N2CCOCC2)nc2ccccc2c1=O,5.32%
18,O=C(Nc1cccc(Cl)c1)N(Cc1nc2ccccc2c(=O)[nH]1)C1CCCC1,10.5%
19,COCCC(=O)N1CCCC(CNS(=O)(=O)c2ccc(OC)cc2)C1 (stereo not shown),8.3%
20,O=C(c1ccc(F)cc1)c1ccc(-c2ccc(F)cc2)nc1,16.5%
21,Cc1ccc(C)c(C2C(C#N)=C(N)Oc3cc(C)oc(=O)c32)c1 (stereo not shown),15.2%
22,CCC(=O)N/N=C/c1ccc(OS(=O)(=O)c2ccccc2)cc1,10%

row,SMILES,"hERG current change (%, negative = inhibition) at 1uM"
1,Cc1ccc(C(=O)NCc2ccccn2)cc1Cl,9.31%
2,Cc1cc(S(=O)(=O)NCc2ccccc2)ccc1OCC(=O)NCc1ccccn1,-1.19%
3,Cc1ccc(/C=N/Nc2cccc3cccnc23)c(O)c1,15.5%
4,COCCNc1nnnc2c1sc1nc(N3CCOCC3)c3c(c12)CC(C)(C)OC3,12%
5,Cc1cc(OCC(=O)NCC(O)c2ccccc2)c2c3c(c(=O)oc2c1)CCCC3 (stereo not shown),5.73%
6,COc1ccc(CNC(=O)Nc2ccc(C)cc2C)cc1,5.96%
7,COC(=O)C1Cc2c([nH]c3ccccc23)CN1 (stereo not shown),5.08%
8,O=C1N[C@@H](Cc2ccccc2)C(=O)N2CCC[C@@H]12,13.4%
9,Cc1ccccc1C(=O)N1CCC(C(=O)Nc2ccc(C)c(S(=O)(=O)N3CCCCC3)c2)CC1,2.28%
10,CC(C)c1nnc(N2C(=O)c3oc4ccccc4c(=O)c3C2c2ccco2)s1 (stereo not shown),13.3%
11,COCC(=O)N/N=C/c1ccc(Sc2nc3ccccc3s2)o1,-1.28%
12,CC(=O)c1cc(CN2C(=O)c3ccccc3C2=O)cs1,3.24%
13,COc1ccc(NC(=O)C2CCN(S(=O)(=O)c3ccccc3)CC2)cc1,19%
14,CN(Cc1ccccc1)C(=O)c1ccc2c(c1)OCCO2,8.34%
15,CCC(C)c1ccccc1N1CC(C(=O)Nc2ccc(C)c(S(=O)(=O)N3CCOCC3)c2)CC1=O (stereo not shown),13.4%
16,Nc1nnnn1/N=C/c1ccccc1C(F)(F)F,4.32%
17,Cc1cccc(NC(=O)c2nc[nH]c2C(=O)N[C@@H](C)C(=O)OC(C)(C)C)c1,15.5%
18,COCCN=C1Sc2nc3c(C)cccc3cc2CN1Cc1ccco1,5.8%
19,COc1ccc(-c2nnn(Cc3ccccc3)n2)cc1,16.5%
20,COc1ccc(S(=O)(=O)Nc2ccc(NC(C)=O)cc2)cc1Br,8.85%
21,COC(=O)CCC/C=C1/SCC(NC(=O)c2ccccc2)C1O (stereo not shown),5.92%
22,O=C(NCc1cc(C(F)(F)F)cc(C(F)(F)F)c1)C1CC(c2cccc([N+](=O)[O-])c2)=NO1 (stereo not shown),10.7%
